Measured values reported in publication PMC9692854.
Results are given in words; binding and its absence hold for the method and conditions named. Some binding calls cover weakened binding; strength is not graded here. Each block holds one binder with its values, some of them ahead of it.

Experiments:
Test in all cases: two-hybrid; ORFs in pGADT7 (AD, prey; strain Y187) or pGBKT7 (BD, bait; strain Y2HGold), pairwise mating; diploids grown 3 days at 30 °C on double-dropout (SDM/-Leu/-Trp/X-α-Gal/AbA) and quadruple-dropout (SDM/-Leu/-Trp/-Ade-His/X-α-Gal/AbA) medium; growth on quadruple dropout read as interaction
[1] = biological target: T1, Beauveria bassiana white collar protein WC1 (B. bassiana) (UniProt J5J1K4)
T1 sequence: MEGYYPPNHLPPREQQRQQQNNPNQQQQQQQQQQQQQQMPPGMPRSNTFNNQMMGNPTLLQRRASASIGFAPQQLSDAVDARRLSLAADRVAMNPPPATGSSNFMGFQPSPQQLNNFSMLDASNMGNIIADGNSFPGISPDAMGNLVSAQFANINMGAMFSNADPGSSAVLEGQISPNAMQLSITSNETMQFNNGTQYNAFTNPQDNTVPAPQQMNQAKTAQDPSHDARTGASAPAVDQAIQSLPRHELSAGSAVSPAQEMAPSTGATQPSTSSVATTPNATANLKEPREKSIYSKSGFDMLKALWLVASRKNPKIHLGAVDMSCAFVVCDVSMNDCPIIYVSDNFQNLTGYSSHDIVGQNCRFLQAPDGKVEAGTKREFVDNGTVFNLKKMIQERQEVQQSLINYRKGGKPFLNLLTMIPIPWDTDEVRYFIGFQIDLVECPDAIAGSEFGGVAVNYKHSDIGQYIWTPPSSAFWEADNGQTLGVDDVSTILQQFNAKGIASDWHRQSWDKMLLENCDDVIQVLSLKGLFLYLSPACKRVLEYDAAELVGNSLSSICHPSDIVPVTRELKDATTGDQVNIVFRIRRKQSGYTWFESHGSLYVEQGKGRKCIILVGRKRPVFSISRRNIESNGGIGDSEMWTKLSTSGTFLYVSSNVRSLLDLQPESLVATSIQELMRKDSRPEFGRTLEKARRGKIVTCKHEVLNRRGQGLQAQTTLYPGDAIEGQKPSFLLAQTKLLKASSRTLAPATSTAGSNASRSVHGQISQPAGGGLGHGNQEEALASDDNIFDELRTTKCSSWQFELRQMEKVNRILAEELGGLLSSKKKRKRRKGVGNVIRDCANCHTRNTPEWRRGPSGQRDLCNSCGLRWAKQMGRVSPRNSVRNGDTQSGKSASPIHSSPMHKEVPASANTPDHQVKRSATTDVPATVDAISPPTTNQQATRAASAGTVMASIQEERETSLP

[2] = biological target: T2, Beauveria bassiana Rad1 (B. bassiana) (UniProt J4VYF0)
T2 sequence: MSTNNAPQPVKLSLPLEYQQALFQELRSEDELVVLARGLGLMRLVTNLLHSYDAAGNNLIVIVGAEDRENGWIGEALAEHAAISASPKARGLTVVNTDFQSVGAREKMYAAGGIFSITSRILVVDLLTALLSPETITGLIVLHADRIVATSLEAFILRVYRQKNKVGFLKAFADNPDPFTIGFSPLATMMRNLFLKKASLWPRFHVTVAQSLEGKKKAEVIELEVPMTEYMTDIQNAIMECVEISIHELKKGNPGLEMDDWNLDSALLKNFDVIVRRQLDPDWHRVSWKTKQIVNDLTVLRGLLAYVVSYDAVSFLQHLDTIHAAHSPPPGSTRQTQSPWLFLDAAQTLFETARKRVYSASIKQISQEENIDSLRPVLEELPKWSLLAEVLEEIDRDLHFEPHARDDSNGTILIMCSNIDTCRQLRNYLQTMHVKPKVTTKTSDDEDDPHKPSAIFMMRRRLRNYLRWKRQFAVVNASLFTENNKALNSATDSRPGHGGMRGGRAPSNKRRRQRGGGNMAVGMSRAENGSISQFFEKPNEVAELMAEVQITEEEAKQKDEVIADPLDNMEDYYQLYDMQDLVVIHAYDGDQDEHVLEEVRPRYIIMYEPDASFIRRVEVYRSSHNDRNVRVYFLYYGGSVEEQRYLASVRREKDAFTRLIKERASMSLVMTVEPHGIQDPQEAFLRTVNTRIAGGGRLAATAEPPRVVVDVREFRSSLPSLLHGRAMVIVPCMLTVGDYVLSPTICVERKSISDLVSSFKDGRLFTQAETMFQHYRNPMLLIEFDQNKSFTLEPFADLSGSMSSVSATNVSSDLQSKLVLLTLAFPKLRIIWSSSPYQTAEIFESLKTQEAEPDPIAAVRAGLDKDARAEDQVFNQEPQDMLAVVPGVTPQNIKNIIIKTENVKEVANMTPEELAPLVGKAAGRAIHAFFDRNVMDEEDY

[3] = biological target: T3, Beauveria bassiana Rad10 (B. bassiana) (UniProt J4UQI9)
T3 sequence: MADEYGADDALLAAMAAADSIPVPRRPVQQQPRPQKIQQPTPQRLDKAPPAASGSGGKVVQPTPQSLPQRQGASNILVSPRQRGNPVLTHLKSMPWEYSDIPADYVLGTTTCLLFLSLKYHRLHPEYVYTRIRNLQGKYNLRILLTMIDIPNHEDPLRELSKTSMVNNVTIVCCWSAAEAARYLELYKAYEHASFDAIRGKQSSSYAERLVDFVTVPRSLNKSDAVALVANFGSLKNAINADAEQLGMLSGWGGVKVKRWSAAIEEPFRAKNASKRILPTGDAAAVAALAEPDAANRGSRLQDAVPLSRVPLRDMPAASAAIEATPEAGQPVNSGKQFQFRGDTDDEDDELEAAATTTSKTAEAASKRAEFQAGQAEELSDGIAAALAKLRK

binding [1]: binds
binding [2]: binds
B1: Beauveria bassiana Rad10 (protein, UniProt J4UQI9 1-392)
chain: T3 sequence

binding [3]: binds
binding [1]: binds
B2: Beauveria bassiana Rad1 (protein, UniProt J4VYF0 1-940)
chain: T2 sequence
